Measured values: PubChem BioAssay AID504832 (National Center for Advancing Translational Sciences (NCATS), 2011)
Out of some 310,000 compounds screened, about 18,000 (5.8%) were called active. The inconclusive results got no clear call from the source; some entries with a clear call stand among them for comparison. Calls come from the whole dose curve; as a rule, active = well fitted inhibition curve with a large enough effect; inconclusive = small, poorly fitted or top-dose-only effect, or another doubt; inactive = no such curve, though single readings can be large or run the other way. Potencies of inconclusive entries are left out as doubtful fits.

Assay: Primary qHTS for delayed death inhibitors of the malarial parasite plastid, 48 hour incubation
Conditions: P. falciparum luciferase growth in erythrocytes; series mostly up to 28.7 µM
How it was run: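 A one-generation exposure of luciferase-tagged malaria parasites in RPMI 1640/Albumax erythrocyte culture, 37 C and 5% CO2. Inhibition is inferred from decreased luminescence after adding detection reagent.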
Potency is the fitted concentration of half-maximal effect; tags give direction and shape of the fitted curve.

SMILES	Potency
Cc1cccn2c(=O)cc(CSc3nnc(NC(=O)COc4ccccc4)s3)nc12	inconclusive [inhibitor, single point]
FC(F)(F)COc1nc(OCC(F)(F)F)nc(N2CCN(c3ccccc3)CC2)n1	inconclusive [inhibitor, single point]
CCN(CC)S(=O)(=O)c1cccc(-c2nnc(SCCCC(=O)c3ccc(F)cc3)o2)c1	active: 9.28 µM
CCOc1ccc(-n2c(C)nc3cc(C(=O)NCc4ccco4)ccc32)cc1	inconclusive [inhibitor, single point]
COc1ccc(OC)c(NC(=O)c2[nH]c(C)c(C(C)=O)c2C)c1	inactive
Cc1ccc(N2CN(Cc3ccco3)CNC2=S)c(C)c1	inconclusive [inhibitor, single point]
CC(C)(C)NC(=O)C(c1ccsc1)N(CCc1ccccc1)C(=O)Cn1nnc2ccccc21 (stereo unspecified)	inconclusive [inhibitor, single point]
CCOC(=O)c1ccc2c(c1)nc(SCC(=O)c1ccco1)n2CC	inconclusive [inhibitor, single point]
CCC1=NN2C(=N)/C(=C\c3cccn3-c3ccc(C)cc3C)C(=O)N=C2S1	inconclusive [inhibitor, partial curve, poor fit]
COCCCNCCCCOc1ccccc1-c1ccccc1	inconclusive [inhibitor, partial curve]
c1ccc(NC2=NCCN2CCCC2CCCCC2)cc1	inconclusive [inhibitor, partial curve, poor fit]
Cc1nc(-c2noc(-c3cccc(Cl)c3)n2)c(C(F)(F)F)o1	inactive
CC(C)NC(=O)COC(=O)CNC(=O)c1cc(Cl)cc([N+](=O)[O-])c1	inactive
Cc1ccc(C)c(OCC(=O)Nc2ccc(S(=O)(=O)Nc3ccccn3)cc2)c1	inconclusive [inhibitor, single point]
O=S(=O)(CCN1CCN(c2ccccc2O)CC1)c1cc(Cl)ccc1Cl	inactive
CCC(C)(C)n1nnnc1C(c1ccc(C)cc1)N1CCN(Cc2ccc3c(c2)OCO3)CC1 (stereo unspecified)	active: 14.7 µM
O=C(NCc1ccncc1)C1CCN(S(=O)(=O)c2ccc(Cl)c(C(F)(F)F)c2)CC1	inconclusive [inhibitor, single point]
O=C(CCS(=O)(=O)c1ccc2c(c1)NC(=O)CO2)NCc1ccccc1	inactive
CC(=O)Nc1ccc(C(=O)Nc2ccncc2)cc1	inactive
Cc1cc(C(=O)Nc2cccc(S(=O)(=O)N3CCCC3)c2)c2ccccc2n1	inconclusive [inhibitor, single point]
O=C1CN(C(=O)CSc2nc3ccccc3c(=O)n2Cc2ccc(F)cc2)c2ccccc2N1	active: 11.7 µM
COc1cccc(C2C3=C(CC(C)(C)CC3=O)Nc3n[nH]c(C)c32)c1 (stereo unspecified)	inconclusive [inhibitor, partial curve, poor fit]

SMILES	Potency
O=C(NCCc1csc(-c2cccnc2)n1)c1ccc(Br)o1	inconclusive [inhibitor, single point]
CCCCCCNC(=O)N[C@H](C(=O)NCCC[C@H]1CN2C(=NC[C@H]2C)N1CCC(c1ccccc1)c1ccccc1)C(C)O (stereo partly specified)	active: 9.28 µM
Cc1ccc(NC(=S)NC(=O)c2ccc(-c3ccccc3)cc2)c(C)c1	inconclusive [inhibitor, full curve, poor fit]
COC(=O)CC1C(=O)NCCN1C(=O)c1cc(OC)c(OC)cc1OC (stereo unspecified)	inconclusive [inhibitor, partial curve, poor fit]
CCC1CCc2sc(C(=O)N(C)CC(=O)Nc3ccc(OC)cc3)cc2C1 (stereo unspecified)	inconclusive [inhibitor, single point]
COC(=O)c1cccc(NC(=O)Nc2ccc(Cl)c(Cl)c2)c1	inconclusive [inhibitor, single point]
CCN(c1ccccc1C)S(=O)(=O)c1nnc(NC(=O)c2ccco2)s1	inconclusive [inhibitor, single point]
Cc1ccc(C(=O)COC(=O)CCN2C(=O)C3C4C=CC(C5CC45)C3C2=O)cc1 (stereo unspecified)	inactive
CCO[C@@H]1OC(C(=O)Nc2ccccc2)=C[C@H](c2ccc(C(F)(F)F)cc2)[C@H]1CCCO	inconclusive [inhibitor, single point]
COCC(=O)N1CCC(Oc2ccc(C(=O)N3CCCCCCC3)cc2)CC1	inconclusive [inhibitor, single point]
Cc1cccnc1NC(=S)NC(=O)/C=C/c1ccccc1	inconclusive [inhibitor, partial curve]
CCCC(=O)Nc1cccc(C(=O)Nc2nccs2)c1	inactive
CCN1C(=O)[C@H]2[C@@H](c3ccc(C)cc3)N3C(=O)N(c4cccc(Cl)c4)C(=O)[C@@]3(Cc3ccccc3)[C@H]2C1=O	inconclusive [inhibitor, single point]
Cc1c(C(c2cccc(Br)c2)c2c(C)n(C)n(-c3ccccc3)c2=O)c(=O)n(-c2ccccc2)n1C	inconclusive [inhibitor, partial curve, poor fit]
C/C(=N/NC(=O)c1ccncc1)c1cc2ccc(O)cc2oc1=O	inactive
COc1ccc(OC)c(NC(=O)CN2C(=O)c3ccccc3S2(=O)=O)c1	inactive
CCOc1ccc(N(CC(=O)NCc2cccc(OC)c2)S(=O)(=O)c2c(C)noc2C)cc1	inconclusive [inhibitor, single point]
OC1C=CSc2nc3ccccc3n21 (stereo unspecified)	inconclusive [inhibitor, single point]
COc1ccc(NC(=O)Cn2nc(C(F)(F)F)c3c2CCCC3)cc1OC	inconclusive [inhibitor, single point]
CCn1c(SCC(=O)c2c(N)n(C3CC3)c(=O)[nH]c2=O)nnc1-c1ccccc1OC	inconclusive [inhibitor, partial curve]
NC(=O)CSc1nc2c(sc3ccccc32)c(=O)n1CCCN1CCOCC1	inconclusive [inhibitor, partial curve]
C=CCn1c(SC(C)C(=O)c2c(N)n(C)c(=O)n(C)c2=O)nnc1-c1ccoc1C (stereo unspecified)	active: 11.7 µM

SMILES	Potency
CCOc1ccc2[nH]cc(-c3csc(N)n3)c2c1	active: 11.7 µM
Cn1c(CN2CCCC2)nc2cc(NC(=O)c3ccc(Cl)cc3)ccc21	inconclusive [inhibitor, single point]
C/C(=N/NC(=O)CSc1nc2ccccc2n1C)c1ccncc1	inconclusive [inhibitor, partial curve]
CCNc1nc(SCC(=O)Nc2ccc(Cl)c(Cl)c2)nc(N2CCOCC2)n1	inconclusive [inhibitor, partial curve, poor fit]
O=C(Nc1ccc(F)cc1)c1cc(-c2ccncc2)nc2c(Cl)cccc12	active: 2.08 µM
CCOc1cc(N2CCOCC2)c(OCC)cc1NC(=O)CSc1ccccc1C(=O)O	inconclusive [inhibitor, single point]
N#C/C(=C(/O)CSc1nnc(Cc2cccs2)n1C1CCCCC1)c1nc2ccccc2[nH]1	active: 6.57 µM
COc1ccc(Nc2nnc(Cc3ccccc3)c(=O)[nH]2)c(OC)c1	inconclusive [inhibitor, full curve, poor fit]
CC(C)CN(C[C@@H](O)[C@H](Cc1ccccc1)NC(=O)O[C@H]1CCOC1)S(=O)(=O)c1ccc(N)cc1	inconclusive [inhibitor, single point]
Cc1ccc(NC(=O)CSCC(=O)Nc2cccc(S(=O)(=O)N3CCCCCC3)c2)cc1	inconclusive [inhibitor, single point]
O=c1c2cnn(-c3ccccc3Cl)c2ncn1Cc1cccnc1	inconclusive [inhibitor, partial curve]
Nc1ncc(Br)cc1S(=O)(=O)NCCC(=O)N1CCN(c2ncccn2)CC1	inconclusive [inhibitor, partial curve, poor fit]
COc1ccccc1CNCc1ccc(OC)c(OC)c1OC	inactive
CCCN(CC1CCCO1)C(=O)c1cc(COc2ccc(F)cc2F)on1 (stereo unspecified)	inactive
Cc1cnc(NC(=O)CSC(=S)N2CCOCC2)s1	inactive
COc1cc(Cn2c(-c3nonc3N)nc3ccccc32)ccc1C	inconclusive [inhibitor, single point]
CN(C)CCCNC(=O)c1ccc(Oc2ccccc2)cc1	inactive
Cc1cccc(C(=O)NC(=S)Nc2cccc3nc(C)ccc23)c1	inconclusive [inhibitor, partial curve, poor fit]
Cc1ccccc1CSc1nnc2ccc(-c3ccncc3)nn12	inconclusive [inhibitor, partial curve, poor fit]
Cc1cc(C)c(S(=O)(=O)NCc2cccnc2)cc1C	inconclusive [inhibitor, single point]
CC1(c2ccccc2Cl)NC(=O)N(CC(=O)Nc2ccc3c(c2)OCO3)C1=O (stereo unspecified)	inconclusive [inhibitor, single point]
CC(C)(C)n1nc(C2CC2)cc1NC(=O)Nc1ccc(Cl)cc1	inconclusive [inhibitor, partial curve, poor fit]
